For the test, the target named is T1, HLA A2.1 (Homo sapiens, UniProt P04439, D140Y/D185E/D98H/E176V/E277Q/G131W/G231S/I119V/I121R/I166T/I218V/L300P/L318F/N151K/N90K/P208A/P217A/Q86G/Q94H/R138H/R169H/T345S).
T1 construct: expressed in transfected cells
The format is cell-based.

Here are results for 1 sequence from US20030138946A1.

On to FRIGCRHSR [HIV Vpr peptide], for which the “thermostabilization of HLA A2.1 surface expression” value was “not A2.1”.
